Experimental data: publication PMC8920097, “Prediction of hERG inhibition of drug discovery compounds using biomimetic HPLC measurements” (ADMET & DMPK, 2021)

How the values were obtained:
[1] = tested on: alpha-1-acid-glycoprotein (AGP); test: Protein binding on Chiralpak AGP HPLC column; conditions: pH 7.4, Chiralpak AGP
Description: (§1) The measurement of the biomimetic properties of the available drugs was conducted in our laboratories. Generic gradient HPLC methods were used to determine the chromatographic hydrophobicity Index (CHI) using mobile phases at three different pH values. The protein binding of the compounds was measured using immobilised human serum albumin (HSA), and alpha-1-acid-glycoprotein (AGP) stationary phases. The phospholipid-binding was measured using the immobilised artificial membrane (IAM) stationary phase. The aim was to establish relationships between the cardiotoxicity potential and the biomimetic binding properties of the drugs and to evaluate their predictive performance.

[2] = Phospholipid binding at pH 7.4 on IAM PC.DD2 HPLC column; format: physicochemical; set-up: key: approximates acetonitrile concentration (%) in mobile phase at elution
Description: The phospholipid-binding was measured using an IAM PC.DD2 column with dimensions of 100 x 4.6 mm (Regis Technologies Inc., Morton Grove, IL, USA). The gradient retention times were measured using a 50 mM ammonium acetate mobile phase with the pH adjusted to 7.4. The mobile phase flow rate was 1.5 mL/min. […] The cycle time was 6 min, plus an additional 1 min equilibration time was applied while the injector prepared for the next injection. The gradient retention times were calibrated with the acetophenone homologues for which the CHI IAM values have been established using isocratic measurements. […] The CHI Index on the IAM column (CHI IAM) approximates the acetonitrile concentration in the mobile phase when the compound elutes. […] The CHI IAM values have been converted to log k IAM values derived from the CHI IAM values using equation 1. It represents the equivalent value derived from several isocratic measurements with extrapolated log retention factors to 100 % aqueous mobile phase. The log k IAM values can be converted to log K (IAM) values and show linear relationships with the octanol/water partition coefficients.

[3] = target: human serum albumin (HSA) (Homo sapiens, UniProt P02768); test: Protein binding on Chiralpak HSA HPLC column; conditions: pH 7.4, Chiralpak HSA
Description: as §1

| Compound | log k AGP [1] | CHI IAM [2] | log k HSA [3] |
| --- | --- | --- | --- |
| CC(C)NCC(O)COc1ccc(CC(N)=O)cc1 (stereo not shown) [Atenolol] | -1.83 |  |  |
| O=C(O)COCCN1CCN(C(c2ccccc2)c2ccc(Cl)cc2)CC1 (stereo not shown) [Cetirizine] |  | 40.56 |  |
| O=C(O)c1cn(C2CC2)c2cc(N3CCNCC3)c(F)cc2c1=O [Ciprofloxacin] | -1.19 | 25.39 | -0.54 |
| CN(C)CCOC(c1ccccc1)c1ccccc1 [Diphenhydramine] | 0.60 | 35.63 | 0.33 |
| CCN(CC)CC(=O)Nc1c(C)cccc1C [Lidocaine] | 0.17 |  |  |
| CCOC(=O)N1CCC(=C2c3ccc(Cl)cc3CCc3cccnc32)CC1 [Loratadine] | 1.34 |  |  |
| Cc1cc(NS(=O)(=O)c2ccc(N)cc2)no1 [Sulfamethoxazole] | -1.57 | 13.19 | 0.4 |
